Test results: PubChem BioAssay (NCI)
“And” between values parts separate entries of the source, which are not always exact repeats. Equal entries are not always repeated.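 Five compound concentrations were applied to cells in 96-well plates for 48 hours; endpoints were derived by simple linear interpolation of the resulting dose-response curve. GI50 marks 50% less growth. TGI is the concentration that stops growth completely.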

What follows are molecules tested on NCI-H322M lung (assay: DTP human tumour cell line panel, 48 h).

SMILES	TGI	GI50
COC(=O)[C@@]1(C)C(=O)CC[C@@H]1C=O	> 100 µM	–
OCC[N+]12CCCN1CCC2	> 100 µM	–
O=C1/C(=C/c2ccc(O)cc2)CCc2ccc([N+](=O)[O-])cc21	> 100 µM	–
CC(C)(C)CC(C)(C)c1ccc(O)c(Cc2ccc(Cl)cc2Cl)c1	3 µM	1.64 µM
COc1ccc(/C=C2\COc3ccc(O)c(O)c3C2=O)c(OC)c1OC	47.6 µM	3.88 µM
CNC1Cc2c[nH]c3cccc(c23)C12C=C(C)C(=O)O2 (centres undefined)	> 100 µM	–
COC1=C(C)C(=O)c2c(c(CCCl)c3n2CCC3OC(C)=O)C1=O (centres undefined)	3.99 µM	0.186 µM
CCC/C(Cl)=N/OC(=O)Nc1cc(C(F)(F)F)ccc1OC	31.3 µM	–
CN(C)CC(=O)Nc1ccc2ncnc(Nc3ccc(Oc4cccc(C(F)(F)F)c4)c(Cl)c3)c2c1	6.65 µM	1.88 µM
COc1c(/C=C/C=O)cc2c(c1OC)OCO2	> 100 µM	–
O=C1c2cccnc2C(=O)c2c1c(C(=O)OCCN1CCCCC1)c1ccccn21	0.867 µM	0.0322 µM
COc1ccccc1CC(C)N (centres undefined)	> 100 µM	–
CC(NCc1c(O)ccc2ccc(=O)oc12)C(=O)O (centres undefined)	> 100 µM	–
CCC1C(C(=O)Nc2ccccc2C)=C(C)NC(C)=C1c1ccccc1C (centres undefined)	> 100 µM	–
COc1ccc2c(c1)-c1c(c3cc(OC)ccc3n1CCCN(C)C)CC2	26.8 µM	–
COc1cc(/C=C2\CCC/C(=C\c3ccc(O)c(OC)c3)C2=O)ccc1O	47.1 µM and 11 µM	2.75 µM
Cc1ccc2cccc(OC(=O)Nc3cccc(C(F)(F)F)c3)c2n1	18.8 µM	3.48 µM
c1cc2nnsc2s1	> 100 µM	–
CN(C)Cc1cc(C(=O)/C=C/c2ccc(Cl)c(Cl)c2)cc(CN(C)C)c1O	12.9 µM	–
COc1cc(-c2nc3sc(C)cn3c2/C=C2\C(=O)Nc3ccccc32)c(Br)c(OC)c1OC	> 100 µM	37.2 µM
CC(=O)Nc1ccc(C(=O)NN2C(=O)CSC2c2ccc(O)cc2)cc1 (centres undefined)	> 100 µM	–
O=C(/C=C/c1ccccc1O)c1ccc([N+](=O)[O-])cc1	50.8 µM	–
CN(C)CCNC(=O)c1cc(Cl)cc2cc3ccccc3nc12	4.48 µM	–
CC(C)(C)c1cc(/C=N/NC(=O)c2ccccc2NC(=O)c2cccs2)c(O)c(C(C)(C)C)c1	39.5 µM	0.736 µM
O=C(CCc1ccccc1)NS(=O)(=O)c1ccccc1	> 100 µM	–

SMILES	TGI	GI50
O=C(NCCCNCCN1C(=O)c2cccc3cc([N+](=O)[O-])cc(c23)C1=O)c1cc(-c2ccccc2)nc2ccccc12	17 µM	–
CCOC(=O)C1=C(C)NC(=O)NC1CN1C(=O)c2ccccc2C1=O (centres undefined)	> 100 µM	> 100 µM
COc1cc(/C=C2\N=C(c3ccccc3)N(c3ccc(C(=O)c4ccccc4)cc3N3C(=O)/C(=C/c4ccc(O)c(OC)c4)N=C3c3ccccc3)C2=O)ccc1O	74 µM	–
S=c1c2[nH]cnc2ncn1CCSC1=NC=NC2=NC=NC21 (centres undefined)	> 100 µM	–
COc1ccc2c(=O)cc(-c3ccc(OC)c(OC)c3OC)oc2c1	> 100 µM	–
Cn1c2c(c3ccccc31)CCN(CCCCN1CCN(c3ccccc3)CC1)C2=O	> 100 µM	–
C=C1C(=O)O[C@@H]2/C=C(\C)CC/C=C(\C)CC[C@@]12O	27.1 µM	–
O=C(Cc1nc2ccccc2o1)C(=O)Nc1cccc(Cl)c1	> 100 µM	–
CC1(CO)COS(=O)OC1 (centres undefined)	> 100 µM	–
CC(=O)NCCCCN(CCCNC(C)=O)C(=O)CNS(=O)(=O)c1cccc2c(N(C)C)cccc12	> 100 µM	–
O=C1CSC(c2ccccc2)N1c1ccc(-n2c(-c3ccccc3)nc3ccccc3c2=O)cc1 (centres undefined)	> 100 µM	–
CSc1nc(CO)c(CO)n1C	> 100 µM	–
CNC(=O)C1(C#N)C(c2ccccc2)C(C#N)(C(=O)NC)C1c1ccccc1 (centres undefined)	> 100 µM	–
CC(=O)Nc1ccc(-c2nnc(SCC(=O)Nc3cccc(Cl)c3)o2)cc1	33.4 µM	–
NC(=S)N/N=C1\c2ccccc2-c2c(F)c(F)c(F)c(F)c21	43.9 µM	21.1 µM
C#CC(=O)Nc1cccc2c1cc(C)n2-c1nc2c(c(NCc3ccccc3)n1)CCCC2	3.37 µM	1.79 µM
COc1cc(C2OC(N)=C(C#N)C3=C2C(C)CCC3)cc(OC)c1OC (centres undefined)	> 100 µM	–
Cc1cc(C)nc(NS(=O)(=O)c2ccc(Nc3c4ccccc4nc4c(C(=O)NC(CO)(CO)CO)cccc34)cc2)n1	> 100 µM	–
NC1CCCCC1N.O=C1C=C/C(=C(/c2ccc(O)c(Br)c2)c2ccccc2S(=O)(=O)[O-])C=C1Br.O=C1C=C/C(=C(/c2ccc(O)c(Br)c2)c2ccccc2S(=O)(=O)[O-])C=C1Br.[Pt+4]	91.8 µM	4.56 µM
Cc1ccc(Cc2nn(C)c(=O)n2N)cc1	> 100 µM	–
COC(=O)c1cc(=O)n(-c2ccc3nn(C)nc3c2)cc1C(=O)OC	> 100 µM	–
N#CC1=C2SCCN2C(=O)C(C#N)C12CCCCC2 (centres undefined)	> 100 µM	–
Clc1cc(Cl)c(OCCCCCCN2CCNCC2)c(Cl)c1	9.26 µM	2.88 µM
N#CC1=C(N)NC(=S)NC12Nc1ccccc1S2 (centres undefined)	84 µM	26.7 µM
